Measurements published in the antibiotic and cytotoxicity screens of Wong et al. (2023).
The list shows a part of the results.

Tested on: HepG2
Experiment: cytotoxicity call (relative viability < 0.9)
Conditions: 10 µM

| SMILES | cytotoxicity call |
| --- | --- |
| Cc1ccc(S(=O)(=O)Nc2ccc3c(c2)C(=O)N([C@@H](C)CO)C[C@@H](C)[C@H](CN(C)Cc2ccc(Oc4ccccc4)cc2)O3)cc1 | inactive |
| COc1cccc(NC(=O)N[C@@H]2C=C[C@@H](CC(=O)N3CCN(C)CC3)O[C@@H]2CO)c1 | inactive |
| COc1ccc(S(=O)(=O)Nc2ccc3c(c2)C(=O)N([C@H](C)CO)C[C@H](C)[C@H](CN(C)C(=O)Nc2ccc(F)cc2)OCCCC[C@H](C)O3)cc1 | inactive |
| COc1ccc(CNC(=O)C[C@@H]2CC[C@@H]3[C@H](COc4ccc(NC(=O)C5CC5)cc4C(=O)N3C)O2)cc1 | inactive |
| O=C(C[C@@H]1CC[C@H]2[C@@H](COC[C@H](O)CN2S(=O)(=O)c2ccc(Cl)cc2)O1)N[C@@H]1CCN(Cc2ccccc2)C1 | inactive |
| C[C@H](CO)N1C[C@H](C)[C@@H](CN(C)C(=O)Cc2ccccc2)OCCCC[C@H](C)Oc2ccc(NS(=O)(=O)c3cccs3)cc2C1=O | inactive |
| Cc1ccc(S(=O)(=O)N(C)C[C@@H]2OCCCC[C@@H](C)Oc3ccc(NC(=O)Nc4ccc5c(c4)OCO5)cc3C(=O)N([C@H](C)CO)C[C@@H]2C)cc1 | inactive |
| OCc1cccc(Cn2cncn2)c1 | inactive |
| C[C@H](CO)N1C[C@H](C)[C@H](CN(C)C(=O)Nc2ccc3c(c2)OCO3)Oc2ccc(NC(=O)C3CC3)cc2C1=O | inactive |
| C[C@@H]1CN([C@H](C)CO)S(=O)(=O)c2ccc(C3=CCCC3)cc2O[C@H]1CN(C)C(=O)Cc1ccncc1 | inactive |
| COc1ccc(CN(C)C[C@@H]2Oc3c(NC(=O)Nc4ccc(C(F)(F)F)cc4)cccc3C(=O)N([C@H](C)CO)C[C@@H]2C)cc1 | inactive |
